# Measurements: article PMC4336329 (PLoS ONE, 2015)
# Hit rate of the full screen: of about 310,000 compounds, about 2,200 (0.71%) showed an effect of 50% or more. The effect is printed as a negative number. The list shows a part of the results.
# Molecular target: human ether-à-go-go-related gene (hERG) potassium channel (human, UniProt Q12809)
# Experiment: primary screen, population patch clamp on CHO cells stably expressing hERG
# human ether-à-go-go-related gene (hERG) potassium channel, sequence (Q12809 whole entry, looked up): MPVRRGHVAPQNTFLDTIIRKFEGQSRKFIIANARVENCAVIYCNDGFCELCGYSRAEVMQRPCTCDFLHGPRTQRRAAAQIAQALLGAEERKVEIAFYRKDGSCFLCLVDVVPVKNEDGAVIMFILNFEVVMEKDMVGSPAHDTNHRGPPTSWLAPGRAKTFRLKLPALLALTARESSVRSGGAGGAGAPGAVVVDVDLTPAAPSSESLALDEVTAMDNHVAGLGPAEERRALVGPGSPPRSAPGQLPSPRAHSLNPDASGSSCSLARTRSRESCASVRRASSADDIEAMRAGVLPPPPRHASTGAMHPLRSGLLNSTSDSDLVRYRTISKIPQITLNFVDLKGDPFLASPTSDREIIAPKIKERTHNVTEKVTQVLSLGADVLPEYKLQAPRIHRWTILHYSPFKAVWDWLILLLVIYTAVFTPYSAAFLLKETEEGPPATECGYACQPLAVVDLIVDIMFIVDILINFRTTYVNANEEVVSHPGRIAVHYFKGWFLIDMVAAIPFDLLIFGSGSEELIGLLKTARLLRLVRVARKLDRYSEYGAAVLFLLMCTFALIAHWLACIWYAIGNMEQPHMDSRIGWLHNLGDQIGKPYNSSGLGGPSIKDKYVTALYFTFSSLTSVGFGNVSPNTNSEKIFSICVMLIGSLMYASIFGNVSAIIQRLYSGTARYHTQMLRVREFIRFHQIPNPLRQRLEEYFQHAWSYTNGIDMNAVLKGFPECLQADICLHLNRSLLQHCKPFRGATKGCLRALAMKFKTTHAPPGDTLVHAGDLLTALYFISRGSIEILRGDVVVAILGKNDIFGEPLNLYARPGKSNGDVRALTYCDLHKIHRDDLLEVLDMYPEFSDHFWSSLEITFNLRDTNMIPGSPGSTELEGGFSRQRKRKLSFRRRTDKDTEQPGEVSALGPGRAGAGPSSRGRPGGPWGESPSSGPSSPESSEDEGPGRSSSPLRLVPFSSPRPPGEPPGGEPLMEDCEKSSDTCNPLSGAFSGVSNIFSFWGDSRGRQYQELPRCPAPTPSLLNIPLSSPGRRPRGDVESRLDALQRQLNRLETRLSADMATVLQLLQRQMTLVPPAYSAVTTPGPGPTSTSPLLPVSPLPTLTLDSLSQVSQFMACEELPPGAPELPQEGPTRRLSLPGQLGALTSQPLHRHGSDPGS
row,SMILES,"hERG current change (%, negative = inhibition) at 1uM"
1,CCC(C(=O)Nc1ccc([N+](=O)[O-])cn1)c1ccccc1 (stereo not shown),-23.5%
2,Cc1ccc(NC(=O)Cn2cccc2C2=NC(c3ccccc3)CO2)cc1C (stereo not shown),11.9%
3,O=[N+]([O-])c1cc(NS(=O)(=O)c2ccc(Cl)nc2)ccc1Cl,-0.66%
4,CCOC(=O)CN1NC2(CCCCCCC2)NC1=S,12.1%
5,CCCCCn1c(=O)c(C(=O)Nc2ccccc2)c(O)c2ccccc21,12.9%
6,CCCN1C(=O)C2(SC(NC(C)=O)=NN2C(C)=O)c2cc(C)ccc21 (stereo not shown),16.8%
7,CS(=O)(=O)N1CCc2cc(S(=O)(=O)N3CCN(Cc4ccc5c(c4)OCO5)CC3)ccc21,12.9%
8,Cc1cc(C)cc(OCC(O)CN2C(=O)NC(C)(C)C2=O)c1 (stereo not shown),22%
9,Clc1ccc(C2[C@H]3CN(CC4CCCCC4)[C@H](c4ccccc4)C34CC2(c2cccnc2)C4)cn1 (stereo partly shown),-3.34%
10,CCc1noc(C)c1C(=O)N(C)CC(=O)Nc1ccccc1Br,6.82%
11,COc1ccccc1C(=O)NCC1(c2ccccc2)CCCC1,14.6%
12,Cc1sc(N)nc1-c1ccccc1,11.1%
13,Nc1[nH]ncc1C(=O)Nc1cccc(C(F)(F)F)c1,6.42%
14,Cc1ccccc1C(=O)Nc1ccc(S(=O)(=O)N2CCN(C)CC2)cc1,5.64%
15,O=C(CN1C(=O)NC(c2ccc(F)cc2)C1=O)Nc1ccc2c(c1)OCCO2 (stereo not shown),12.3%
16,COc1ccc(CCNC(=O)c2c(N)n(CCN3CCOCC3)c3nc4ccccc4nc23)cc1,2.14%
17,O=C1CN(C(=O)CSc2nnc3ccccn23)c2ccccc2N1,-4.26%
18,Cc1ccc(CCC(=O)NCc2ccccc2)o1,4.44%
19,CC(C)c1ccc(C2NCc3ccccc3-n3cccc32)cc1.Cl (stereo not shown),14%
20,Cc1ccc(-n2c(C)cc(C(=S)N3CCOCC3)c2C)cc1C,2.89%

row,SMILES,"hERG current change (%, negative = inhibition) at 1uM"
1,O=[N+]([O-])c1cc(/C=N/Nc2nc(N3CCCCC3)nc(N3CCCCC3)n2)ccc1O,10.1%
2,c1ccc2cc(CNCc3cccc4ccccc34)ccc2c1,9.78%
3,CSc1ccc(C2=CC(=O)C[C@H](c3ccc(Cl)cc3)C2)cc1,13.7%
4,CC1(C)C(=O)N(c2ccccc2)C1c1ccccc1O (stereo not shown),8.94%
5,Cc1ccccc1CSCC(=O)NCc1ccco1,1.73%
6,COc1ccccc1C(=O)NNC(=O)c1cccc(O)c1,12.8%
7,COc1ccc(/C=C(\C#N)C(=O)Nc2cccc(C)n2)cc1,15.6%
8,CC(NC(=O)Nc1ccccc1)C(c1cccs1)N1CCN(C)CC1 (stereo not shown),1.44%
9,CCOc1c([N+](=O)[O-])cc2c(C)c(C(=O)N3CCN(C)CC3)oc2c1OCC.Cl,3.61%
10,Cc1cccc(NC(=S)N/N=C/C(C)c2ccccc2)c1C (stereo not shown),11.6%
11,CC(C)N(CC#CC(O)(c1ccccc1)c1ccccc1)C(C)C,-38.1%
12,CC(C)n1c(CN2CCN(C(=O)c3ccco3)CC2)nc2c1c(=O)n(C)c(=O)n2C,4.41%
13,COc1ccccc1/C=N/NC(=O)c1csc(C)c1C,2.87%
14,COc1ccc(CCNC(=S)NCc2cccs2)cc1OC,8.53%
15,O=C(C[n+]1cccc(/C=N/O)c1)N1CCCc2ccccc21.[Cl-],13.5%
16,CS(=O)(=O)c1ccc(Cl)c(NC(=O)c2cccc(-n3cnnn3)c2)c1,-25.5%
17,CCN1CCN(c2ncnc3c2cnn3-c2ccc(Cl)cc2)CC1,10.6%
18,Cc1ccc(C(=O)OCC(=O)Nc2ccc(C(N)=O)cc2)s1,7.67%
19,COc1ccc(/C=C/C(=O)NCC(=O)N/N=C/c2cc(Br)ccc2OCc2ccccc2)cc1,-0.127%
20,C/C(=N/NC(=O)CNC(=O)c1ccco1)c1ccc(Cl)cc1,13.8%

row,SMILES,"hERG current change (%, negative = inhibition) at 1uM"
1,COC(=O)CNC(=O)C12CC3(C)CC(C)(CC(C)(C3)C1)C2,9.23%
2,CCOC(=O)C1CCCN(Cc2nc3ccc([N+](=O)[O-])cc3c(=O)n2-c2ccc(OC)cc2OC)C1 (stereo not shown),0.0791%
3,COc1ccc(/C(C)=N/NC(=O)C(NC(=O)c2ccccc2)c2n[nH]c(=O)c3ccccc23)c(OC)c1 (stereo not shown),11.7%
4,CC(C)CNC(=O)C(=O)NC1CCCC1,7.11%
5,Cc1ccccc1NC(=S)C1=C(O)c2sccc2N(C)S1(=O)=O,8.99%
6,COc1cc(C2C(=O)c3ccccc3C2=O)ccc1O,22.6%
7,O=C(NCC1CCCO1)C1c2ccccc2C(=O)N1C1CCCCCCC1 (stereo not shown),9.96%
8,Cc1ccccc1OCC(=O)N1CCCc2ccccc21,-10.1%
9,Cc1ccc(S(=O)(=O)CCC(=O)OCC(=O)NCC(=O)Nc2cccc(C)c2C)cc1,5.91%
10,Cc1ccc(NC(=O)c2ccc3nc[nH]c3c2)c(O)c1,4.53%
11,O=C1CC(c2ccccc2)C(=O)N1c1cccc(O)c1 (stereo not shown),0.511%
12,O=C(Nc1nnc(-c2ccc(Cl)s2)o1)C1CCCCC1,8.31%
13,COc1ccc(S(=O)(=O)N2CCC(NC(=O)c3cccc(F)c3)CC2)cc1,11.8%
14,Cc1c(Cl)cccc1NC(=O)NCc1ccc(C)n1C,10.1%
15,CCc1ccc(CN(C)C(C)C(=O)NCc2ccccc2)cc1 (stereo not shown),0.484%
16,FC(F)(F)c1cc(-c2ccco2)nc(-n2cnc3ccccc32)n1,-2.75%
17,Cc1ccc(NC(=S)NCc2ccc3c(c2)OCO3)cc1,18.7%
18,COc1ccc2[nH]c(=O)c(CN(CCO)C(=O)c3cccs3)cc2c1,-4.26%
